# Test results from paper PMC12136788.
# The other results are listed elsewhere or left out.
# T1: UNK ZnF1-3 (human, UniProt Q9C0B0 31-174)
# T1 sequence: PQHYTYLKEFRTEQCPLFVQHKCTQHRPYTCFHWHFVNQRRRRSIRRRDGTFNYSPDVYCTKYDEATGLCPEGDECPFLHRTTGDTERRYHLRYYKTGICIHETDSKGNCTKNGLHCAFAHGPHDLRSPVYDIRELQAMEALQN
# B1: chr1:95362928:95362929:-_ENSG00000117519_ENST00000538964|hu_mus|motif|central (ssRNA)
# RNA: GGGAGUUCUACAGUCCGACGAUCGACCACAUUUAGCAAAUCAACUUUUUAGUCUUCCACAUACAAGCCAGAUACGUACGGAAACUGUAAAAAAAGGAGAAAAAAUAGUUUCCUAUUGUUCGAAAAUACCAGUUUAUGUGUAAGCAACAGAGGAUUGAGCAUCA
# B2: 7443155_7443275_1532_3pUTR_ENSMUSG00000027499_ENSMUST00000028999|mouse|control|control (ssRNA)
# RNA: GGGAGUUCUACAGUCCGACGAUCAACAGCAUCAGUAAAAGUGUAGUUGGGUGAUAAUUUUUAUAUCUGAAUGCAAUUCACACAAAUUAUUAGUAAAAUUUUACAAACAUUAAAAAGUGCAUAACAACAUUUGGGUAUGAAAGGCAACAGAGGAUUGAGCAUCA
# B3: chrX:149583016:149583017:+_ENSMUSG00000041658_ENSMUST00000039720|mus_mus|motif|central (ssRNA)
# RNA: GGGAGUUCUACAGUCCGACGAUCAUUUCCAACAGAGUCUACGAGAGAGUAGGUGCUCAAACUGCUAUUAAUUUGAAGACGGUGUAUACGGUCUAGUAUUGUUGCACCAAGACGACGUGUGUCUCUGGCAAUAUAAUUUGCAAACAACAGAGGAUUGAGCAUCA
# B4: 79712232_79715897_320_CDS_ENSMUSG00000020153_ENSMUST00000105364|mouse|control|control (ssRNA)
# RNA: GGGAGUUCUACAGUCCGACGAUCCAGGCUCGGGCUUGGGCUCGGGCUCGGGCCCUCAGUGGCUACACUCUGAUGAACUCUGCGCAGCUGGACCUGUGCUGUGCGCAGACCCAGGAUCCGUACAGAGAGCAGGCCAGGAGCCGCCAACAGAGGAUUGAGCAUCA
# B5: chr17:13109412:13109413:+_ENSMUSG00000068039_ENSMUST00000151287|mus_hu|FALSE|FALSE (ssRNA)
# RNA: GGGAGUUCUACAGUCCGACGAUCCGGUCACCGAACACGGACAAAGGCCCCUCCAUCUUGACGGCAGCGAUACACGUCGAAUUCUGCUUACACCGCGGGCAACCAGUAUCGCGGCCCCUCGGCCGACCGGCGACCACAGCAGUGCAACAGAGGAUUGAGCAUCA
# B6: chr2:166767530:166767531:+_ENSMUSG00000002718_ENSMUST00000002790|mus_hu|FALSE|FALSE (ssRNA)
# RNA: GGGAGUUCUACAGUCCGACGAUCAAAUAUUUCUUGUAGUGCUAGUGCCCCAUAUUUUAUGCAAUACAAAUUAAUAAAGACUAAAAAACUCUUGAUAAACUUGGUUGUUUUGGAAUUCUGAAGUCUCUGGAAUAGCAGAAUGAACAACAGAGGAUUGAGCAUCA
# B7: chr6:38652254:38652255:-_ENSG00000124767_ENST00000373365|hu_hu|hu_hu_hu_mus_False|78_108 (ssRNA)
# RNA: GGGAGUUCUACAGUCCGACGAUCCGAAAACUUCAUAGCAGGGAAGUCAAGCUUCUGGAUUAGCGUCAGUCCAAGAACCCUCGUAUAAAAAUCCAGGGACUUCUUAGGAUCCUUAAUUCUUAGCAUCGUUUGCUGCAGUAGAAACAACAGAGGAUUGAGCAUCA
# B8: chr5:107067165:107067166:-_ENSMUSG00000049606_ENSMUST00000112696|mus_hu|motif|central (ssRNA)
# RNA: GGGAGUUCUACAGUCCGACGAUCAACUGAAGCAGAGGUAGGUAGUUUUUUAUUGGAAUGGGUGGGAUUCUUAGCAUGUGCGGCAUCUGAUAACAAAAAUAAAACUUGGUGUUGACUUGCUUUCUGUGGUGUAGACAGCUGAAGCAACAGAGGAUUGAGCAUCA
# B9: 39607422_39609318_1646_3pUTR_ENSG00000078142_ENST00000262039|human|control|control (ssRNA)
# RNA: GGGAGUUCUACAGUCCGACGAUCAGAACGCAUAACUCUGACAGACUUAUCACCCUUCAACAAUGCUUGGCUGAAUCUUCUCAUUACGUUCAAGUACAUCUCAUGGGUCUUUGGAUCUCUCUGCUGAGUAUCUUGAUCUUCACACAACAGAGGAUUGAGCAUCA
# B10: chr1:224553637:224553638:+_ENSG00000143771_ENST00000366856|hu_hu|FALSE|FALSE (ssRNA)
# RNA: GGGAGUUCUACAGUCCGACGAUCUCGAUAUAUAUUCCAAGUGGCAACAGGUAAGUUGAGAAGGAAGAUGAACCAGUGCAAUGACAUGAGCAGUAAUACAGUGACAAUGGUAUGGCCAAUCAAUUCUGGAAUUACCCACUUGUUCAACAGAGGAUUGAGCAUCA
# B11: 138055828_138055948_2858_3pUTR_ENSMUSG00000041642_ENSMUST00000075164|mouse|control|control (ssRNA)
# RNA: GGGAGUUCUACAGUCCGACGAUCGACUCAGCCUCAGACGAGGUGGUGCUGGCAGACACCUCAGCCCCAGAAUCCAUAUUGGGGGGCUUCAAUCCUACACGCCCAGCCACUCGCUCAGACAUGGGCUUUGCCAGGCGCCUCAGUCAACAGAGGAUUGAGCAUCA
# B12: chr19:41088299:41088300:+_ENSG00000160410_ENST00000291842|hu_hu|FALSE|FALSE (ssRNA)
# RNA: GGGAGUUCUACAGUCCGACGAUCGACGGCAUUCCACACCCCGAUGCGCCCUGUGUGGCUUGUAGCAAUGAGCUGGUUCCCGACGAAGAACAAGGCCUCCACAGGCACCCCCAGAUGAAAGACCCCUAUCUCGGAGCCACCGCCCAACAGAGGAUUGAGCAUCA
# B13: chr4:17488853:17488854:-_ENSG00000151552_ENST00000428702|hu_hu|FALSE|FALSE (ssRNA)
# RNA: GGGAGUUCUACAGUCCGACGAUCUAGGCUUCCUGAGCUCGGUCGGUUUUUCCCUGUGAUCCAGUCAUGGAAAGUUUCAACUAGGAAUUCUAAGGGUGUCCAGGAGCUGAAGUCAGCCUCAGGCAUUGAUUUCCUGUUCAUCGGCAACAGAGGAUUGAGCAUCA
# B14: chr3:10015032:10015033:+_ENSMUSG00000027533_ENSMUST00000029046|mus_mus|mus_mus_mus_hu_True|28_98 (ssRNA)
# RNA: GGGAGUUCUACAGUCCGACGAUCGUUUUUACCAUCACACGUAAUGAUACAAUCUGGCUUGGCCAUUGCGCCCAUUUUUCGCAAAGCUAUUCCCACUCCUAGCUCCUUCAUGUACUCAUCAAAGCCUUUGCUGUCCACCAGGCGCAACAGAGGAUUGAGCAUCA
# Biological target: T1, UNK ZnF1-3
# Test: nsRBNS (natural sequence RNA bind-n-seq); RBNS binding buffer (assumed for nsRBNS): 25 mM Tris pH 7.5, 150 mM KCl, 3 mM MgCl2, 0.01% Triton X-100, 500 ug/ml BSA, 20 U/ml SUPERase-In, 4 C; UNK is unkempt and MSI1 is Musashi-1; names of the RNAs are library labels; protein concentration not given here; high values mean tight binding
row,Binder,binding signal
1,B1,0.981 enrichment R
2,B2,2.36 enrichment R
3,B3,0.834 enrichment R
4,B4,0.582 enrichment R
5,B5,0.798 enrichment R
6,B6,1.53 enrichment R
7,B7,1.03 enrichment R
8,B8,2.65 enrichment R
9,B9,0.818 enrichment R
10,B10,1.2 enrichment R
11,B11,0.672 enrichment R
12,B12,1.5 enrichment R
13,B13,0.96 enrichment R
14,B14,0.657 enrichment R
